The labels stand for the following.
B1: chr4:115894766:115894767:+_ENSMUSG00000028698_ENSMUST00000030464|mus_hu|mus_mus_mus_hu_True|88_98 (ssRNA)
RNA: GGGAGUUCUACAGUCCGACGAUCUUCCACACGGAAAGUACUUGGGGGUUUCCAACGGGCCAGUACCAGUCCGGCCAAACUACCCGAACAGGGUCCUCCCCCUCUCUCCUACAGAACACAACAAAAUGCCCCCGAACUUUCAAGCAACAGAGGAUUGAGCAUCA
B2: chr18:5290039:5290040:-_ENSG00000198081_ENST00000357006|hu_hu|FALSE|FALSE (ssRNA)
RNA: GGGAGUUCUACAGUCCGACGAUCCUAGGAAAUCUUGGGAUUGUUACACAUGUAAAAAACCUUAUCUCUGAGAGCCUUUUCUAUUCUUCUUACCACAGGUCCACUCACAAAUCGCAGCUGGUAUGGACUGGUACUGCCCCAAAUCAACAGAGGAUUGAGCAUCA
B3: 67201294_67202411_752_3pUTR_ENSMUSG00000031604_ENSMUST00000034015|mouse|control|control (ssRNA)
RNA: GGGAGUUCUACAGUCCGACGAUCUAAAUUCUCUUGUGGUGAAGGAGUCUGUGCAGGAAAUAAUGCCAGGUGUCCUCAAUGACUGCACAGCCCAAACACCUUGCCAAAGUUAAGUACCAUCUUGGCAUUCUUUCCCAAUCAUAACAACAGAGGAUUGAGCAUCA
B4: chrX:106345308:106345309:+_ENSMUSG00000031246_ENSMUST00000033598|mus_hu|motif|central (ssRNA)
RNA: GGGAGUUCUACAGUCCGACGAUCUUCUCUCAUCCACUUCCGAUUCUCUUCAUUGGCUGCAAUAUCUUUUUCUUCAAAUCCGGUUUUGUUGGCUUCUAGGAAACCAAGCACAUCUUGUUGUUUCUUCUUAAUCGCUGUAGAGCCCAACAGAGGAUUGAGCAUCA
B5: chr14:76904430:76904431:+_ENSMUSG00000022010_ENSMUST00000022587|mus_mus|mus_mus_mus_hu_True|8_108 (ssRNA)
RNA: GGGAGUUCUACAGUCCGACGAUCUGCUGGAAAAAAAACCCUCGUGGAAAAAAAGAGGGAACACCAGCAGCCUUGUAUAAGCUAGAUAAAAUCUUCUGGCUUUCCGCAGCCCAGGGAGAAACAGAAAUGGUGCUGGCUAAUUUACAACAGAGGAUUGAGCAUCA
B6: chr12:57037365:57037366:-_ENSG00000110955_ENST00000262030|hu_mus|FALSE|FALSE (ssRNA)
RNA: GGGAGUUCUACAGUCCGACGAUCCUUUCCAACGCCAGCACCUCCAAAGAGUCCGAUUUUCCCACCCUUGGCGUAUGGGGCCAGCAGAUCCACAACCUUUAUCCCAGUCACCAGAAUCUCCUGCUCAACACUCAUCUCUAUGAACAACAGAGGAUUGAGCAUCA
B7: 3603523_3604810_715_CDS_ENSMUSG00000035632_ENSMUST00000038913|mouse|control|control (ssRNA)
RNA: GGGAGUUCUACAGUCCGACGAUCGUCCUGCUUAUCCUUGUCGCCUUUCUUCUUGCGUGUCUGUACCGACAGUGACUCCACUUCACUCUCAAACUGGUCCACCUGCAUAUUUAAGGUGUCAAUGGUGUUCGUGAGCCACUGGCCCAACAGAGGAUUGAGCAUCA
B8: chr9:66219764:66219765:+_ENSMUSG00000038664_ENSMUST00000042824|mus_mus|motif|central (ssRNA)
RNA: GGGAGUUCUACAGUCCGACGAUCUUCAAAAUCAGGCAACUGUGGUCCUUUGAGGCAUAAAACCUGUUGAGGCAAAGGUACGGCUUCCUUAUUGCUGAUCAGUUUAGAAUACAAAACGGUAACUCCCUCUCUUGUAGCAAUAGACAACAGAGGAUUGAGCAUCA
B9: 151023832_151026400_559_CDS_ENSMUSG00000058454_ENSMUST00000124340|mouse|control|control (ssRNA)
RNA: GGGAGUUCUACAGUCCGACGAUCGCCUCCCACAUAACCUGGCAGAAAUCUGUGGCAGAAGUCAGGAAGCCAGGAAUAAAGCAGCACCUGGAAGCUGACCCACAAGGCAUACAGUUGGGCAGCUUUAGCUGUCACAGGUGGUGUCAACAGAGGAUUGAGCAUCA
B10: chr12:90018129:90018130:-_ENSG00000070961_ENST00000261173|hu_mus|motif|central (ssRNA)
RNA: GGGAGUUCUACAGUCCGACGAUCCUCUGCAAGCCAUGGUCUUUUCUGAACCCAGAAGGUAUCGAUCACAAAAUACAACACGGGGAUGAUAACUGUGAUGGCAGACAUCAGCAGACCUGCUUUGCCAAUCUGAACAGCCAGCUUCAACAGAGGAUUGAGCAUCA
B11: chr1:109605286:109605287:-_ENSG00000197780_ENST00000461096|hu_mus|hu_hu_hu_mus_True|68_108 (ssRNA)
RNA: GGGAGUUCUACAGUCCGACGAUCAAGAACAAUAACAACAUUCAGUAACCUCUUUAAAUGCAAUUAUCCUUACUUUAAGCUAAGCAGAAUAAUAAUUUAAUACCGUAAGUGAACUACACACAAAGCCUGAACCGCGAAAAUGGUCAACAGAGGAUUGAGCAUCA
B12: 102284419_102284539_9320_CDS_ENSMUSG00000043940_ENSMUST00000053177|mouse|control|control (ssRNA)
RNA: GGGAGUUCUACAGUCCGACGAUCCUGGCCGAAGUUGUUAAUGAACCCGAUGGUGGCCGUCUCCUUCAGUGGGUCGUUGAUGUUGUAGAUAUCCACUUGCCCCUCAUAAAAAAGGUGAUGGAAGACAUUCACAGCCUCUACGGCCAACAGAGGAUUGAGCAUCA
B13: chr12:39756943:39756944:-_ENSG00000139116_ENST00000544797|hu_mus|hu_hu_hu_mus_False|28_38 (ssRNA)
RNA: GGGAGUUCUACAGUCCGACGAUCGGUUUGGCUGUUACCCCCAAGGGAAUCCUGCAAGAGUCUUGUCAGCUUAGAGUCUCUGUAAGGGACAUGGGUGGCCCUCUUGCUCUUGUCUCCCAAGGCGCUGAUUACAUUCCCAAGAGCCAACAGAGGAUUGAGCAUCA
B14: chr1:58468927:58468928:-_ENSMUSG00000026034_ENSMUST00000148330|mus_mus|mus_mus_mus_hu_False|78_108 (ssRNA)
RNA: GGGAGUUCUACAGUCCGACGAUCAAUCUAUAAUUACGAUGUUCAUUACCUUAGCUAGGCCAUGUAUGAACCAAAUUACCCAAACAAAAUAAACAUGGCAAUAUAAAAAUGUUAAGAAUUUACAAAGCUGUACAAAAUAACUUACAACAGAGGAUUGAGCAUCA
B15: chr4:41262718:41262719:+_ENSG00000154277_ENST00000284440|perfect_dup|motif|central (ssRNA)
RNA: GGGAGUUCUACAGUCCGACGAUCCCCGAUGGUACCACAGGAGUUUCCGAUGGUCUGCUUCAUGAAGUAAACUUUAGGGCGGACUUCCUGUCCCUUCAGUUCCUCAAUUUGCUUUUUCCUGAAGUUUUCAUGCUGGGCCGUGAGCAACAGAGGAUUGAGCAUCA
B16: chr11:2981123:2981124:-_ENSG00000205531_ENST00000380542|hu_hu|motif|central (ssRNA)
RNA: GGGAGUUCUACAGUCCGACGAUCCUUGUAGGUUUUUGUCAGGACUGAGUUGGUAAAGUAGUCGUUGGGUUCAAAGUGGAACUCGGACACAAAAGACAUAGGCUGUCCAGGGUCAGAAAAUUUCACUUUAAUAUCCUGCAGGUGCAACAGAGGAUUGAGCAUCA
B17: 56100042_56101346_1441_CDS_ENSG00000126777_ENST00000438792|human|control|control (ssRNA)
RNA: GGGAGUUCUACAGUCCGACGAUCCUUCUUUUGGACUUCCUCUUGCUGUAGCUUUCCUGUUUUCUCAGUCAGCUCAUUCACCAACCUAGCAUAAUCCUGGCGUAGUUUAUUUAGUUCUGCAGACUGCUUGCUUUCCAGUUGAUUCAACAGAGGAUUGAGCAUCA
B18: chr19:8913615:8913616:-_ENSMUSG00000071658_ENSMUST00000096259|mus_hu|mus_mus_mus_hu_False|78_78 (ssRNA)
RNA: GGGAGUUCUACAGUCCGACGAUCAGGGUACCAAAACCUUCUGCCUGAAAUGGGUGCCCCACCCUGCAGGGAGUUGCAGCUGAAAGUAUCUGAUGCAGAAGCAGUGACUAUACGAAAGGAGGCCCCUGGGGAGGGCCAGGCCAGCAACAGAGGAUUGAGCAUCA
B19: chr21:38595834:38595835:-_ENSG00000157538_ENST00000309117|hu_mus|motif|central (ssRNA)
RNA: GGGAGUUCUACAGUCCGACGAUCAUCAAAGAUGACUUUUCCUUAGACUCACUAGAAAGUACGGCCCACAUUUUUUGGGUACGGGAUUGUUUAAAUAUAACAAGGAUAAGUAUGACAAAGCAAAAGUACAUUCUCUGGGAACUCCAACAGAGGAUUGAGCAUCA
B20: chr6:41757443:41757444:+_ENSG00000214736_ENST00000398881|hu_mus|hu_hu_hu_mus_False|48_88 (ssRNA)
RNA: GGGAGUUCUACAGUCCGACGAUCGAACCGUGCAGAGGCAACAUCUCGGAAUUCUGCGGGGGAUGGGGGGGCAGUGGGGGGGGGUUCAGGGAAGGGGAGGGAGUCAACUUCAGCUGCCACUCAGGUAGGAUCUUGUGGUCACAGCAACAGAGGAUUGAGCAUCA
B21: 149574919_149575039_456_5pUTR_ENSMUSG00000041658_ENSMUST00000039720|mouse|control|control (ssRNA)
RNA: GGGAGUUCUACAGUCCGACGAUCCAGAUUCUUCCAUCGUGCAACAAGUCCUUCACAGUGCCUUCUAAAUCCGCAGUACCGUUCUUCUGGCUCACCUGCCUACGCUCAGCACCCAGGGCCCGCGGGGCCUGAUCUAUCCCUGCCCAACAGAGGAUUGAGCAUCA
B22: chr7:149068622:149068623:-_ENSMUSG00000025139_ENSMUST00000001950|mus_hu|mus_mus_mus_hu_False|28_108 (ssRNA)
RNA: GGGAGUUCUACAGUCCGACGAUCGUGCAGGUACUGAGUGUGGCUUGUGGUCUGUCCUGGGUUAGAGUUGUUAAUAUCACGGAACAUACCAUCUAGAACGUUCCAGUCUGCCUGACUACCUUCAUUCCCAAUGGAGAAGAAAUCCAACAGAGGAUUGAGCAUCA

This is one part of the list.

In the test the target is T1, UNK ZnF1-3 (human, UniProt Q9C0B0 31-174).
T1 sequence: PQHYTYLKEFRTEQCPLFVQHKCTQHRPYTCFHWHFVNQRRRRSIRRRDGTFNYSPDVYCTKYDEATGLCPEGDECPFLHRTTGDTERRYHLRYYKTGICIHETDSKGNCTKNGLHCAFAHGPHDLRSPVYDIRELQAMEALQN
The experiment in a line: nsRBNS (natural sequence RNA bind-n-seq); RBNS binding buffer (assumed for nsRBNS): 25 mM Tris pH 7.5, 150 mM KCl, 3 mM MgCl2, 0.01% Triton X-100, 500 ug/ml BSA, 20 U/ml SUPERase-In, 4 C; UNK is unkempt and MSI1 is Musashi-1; names of the RNAs are library labels; protein concentration not given here; high values mean tight binding.
B1 showed a binding signal of 1.16 enrichment R.

B2 displayed a binding signal of 1.11 enrichment R.

Molecule B3 came in with a binding signal of 0.868 enrichment R.

As for B4, the binding signal was 0.451 enrichment R.

In turn, B5 registered a binding signal of 2.45 enrichment R.

Molecule B6 showed a binding signal of 1.58 enrichment R.

In turn, B7 had a binding signal of 1.03 enrichment R.

B8 displayed a binding signal of 0.879 enrichment R.

The molecule B9 yielded a binding signal of 1.31 enrichment R.

B10 had a binding signal of 1.25 enrichment R.

B11: the binding signal was found to be 0.865 enrichment R.

As to B12, the binding signal was 1.15 enrichment R.

Molecule B13 registered a binding signal of 0.802 enrichment R.

B14 yielded a binding signal of 0.582 enrichment R.

Molecule B15 displayed a binding signal of 0.827 enrichment R.

Consider B16, for which the binding signal was 1.1 enrichment R.

In turn, B17 returned a binding signal of 0.305 enrichment R.

Take B18: the binding signal amounted to 1.34 enrichment R.

In turn, B19 had a binding signal of 1.38 enrichment R.

For the molecule B20, the binding signal stood at 0 enrichment R.

B21 gave a binding signal of 0.913 enrichment R.

B22 had a binding signal of 0.859 enrichment R.

The values are drawn from publication PMC12136788.
